Reference: US11866449B2, “Crystalline polymorphs of a muscarinic acetylcholine receptor agonist” (NSC Therapeutics GmbH, priority 2016, dated 2024)
≈ marks a conversion by molar mass, not a printed value. Read-outs that look alike come from different tables or passages of the source.

Assays:
healthy elderly subjects = assay: Separate Phase I study in healthy elderly subjects; type: in vivo, man; conditions: healthy elderly subjects (age 65-80 years) of both sexes
[1] = tested on: patients with xerostomia associated with primary or secondary Sjögren's syndrome; assay: Phase II clinical trial in xerostomia associated with Sjögren's syndrome; type: in vivo, human
Procedure: A Phase II clinical trial was conducted to evaluate the tolerability, safety and efficacy of Compound A Form III (NGX267) at single doses of 10 mg, 15 mg and 20 mg (as capsules according to Example 30) compared with placebo when given to patients with xerostomia associated with primary or secondary Sjögren's syndrome. A total of 26 patients were recruited, and randomized to four treatment groups in four treatment periods at three study centers. […] On each study day, whole mouth salivary flow rates were measured as a primary parameter. As a secondary study parameter, subjective measurements of salivary gland dysfunction were assessed 2, 4, 6, 12, 14, and 24 hours post-dose using an 8-item visual analog scale. As an additional exploratory parameter, a standard Schirmer test was conducted bilaterally at baseline and 2, 12, 14, and 24 hours post-dose to assess tear production.

3×Tg-AD mice = conditions: cited from earlier work
[2] = Long-term stability in bulk for the API at 25° C./60% RH
[3] = Compound A Form II once daily for 4 days
[4] = Solid-state stability / transformation of crystal forms on storage, humidity and heating; type: physicochemical
Procedure: Compound A Crystalline Form II (0.4631 g; crystallized from acetonitrile) was placed in a desiccator at 95% relative humidity (saturated solution of Na2HPO4) at room temperature for one week (FIG. 15A). […] (very broad) and 133.9° C. […] X-ray powder diffraction confirmed that the material so obtained was crystalline:
a) During heating at 90° C. of Compound A crystal Form I (crystallized from ethyl acetate) the characteristic peaks of Form I decreased (particularly noticeable in solid-state CP/MAS ^13C NMR spectrum in the regions 14-15, 26-29, 44-46 and 63-66 ppm), whereas those of Compound A crystal Form II increased [diagnostic peaks (15.4, 14.7), (29.1, 25.9), (64.0, 65.7) ppm]. Compound A crystal Form I was completely converted to Compound A crystal Form II in 4 hrs.
b) Crystalline Form I/III Compound A, crystallized from water, was heated at 90° C. for 75 min.
c) Crystalline Form II Compound A was heated at 70° C. for 10 h, then left at room temperature overnight. Solid-state CP/MAS ^13C NMR of the product confirmed that crystalline Form II was unchanged.
a) Crystalline Form II Compound A was left at room temperature for 90 days.
Crystalline Form I Compound A (0.4149 g, crystallized from ethyl acetate) was placed in a desiccator at 95% relative humidity (saturated solution of Na2HPO4) at room temperature for one week.
The evidence of partial conversion of the anhydrous to the hydrate is based on the increased water content observed on repeated handling.

man = conditions: single oral dose; 1-45 mg tested
Aqueous solubility = type: physicochemical; conditions: thermodynamic from solid; API; deionized water, rotated for 2 days at room temperature
Procedure: Aqueous solubility was carried out by preparing 50 mg of API Monohydrate (Form III) in 2 ml of deionized water. The sample was prepared in triplicate and the preparations were rotated for 2 days at room temperature. Following rotation, the mixture remained undisturbed for 3 hours allowing any undissolved API to settle. The supernatant was filtered into scintillation vials using a 4 mm 0.45 microM PTFE filter. A 1 in 40 dilution was made by pipetting 25 microliter into 975 microliter of sample solvent. The resulting dilution was placed into vials for HPLC analysis.

[5] = Hygroscopicity (dynamic moisture uptake); type: physicochemical; conditions: API
Procedure: For the APIs the water uptake was evaluated in a dynamic moisture uptake experiment (SGA-100 Symmetric Vapor Sorption Analyzer, VTI Corporation). The dynamic moisture uptake profile for API (Form III) was completed in 10% increments with sorption from 40% to 90% RH, followed by desorption to 2% RH in 10% increments from 90% to 10% and 1% increments from 10% to 2%. The dynamic moisture uptake profile of API (Form II) was completed in 10% increments with sorption from 40% to 90% RH followed by desorption to 10%.

[6] = tested on: AD patients and schizophrenics; conditions: cited from earlier work
[7] = between 6 and 24 hours post-dose, all three doses (10, 15, 20 mg), Form III

For `CC[C@@H]1SC2(CCN(C)CC2)NC1=O` [Compound A, (S)-2-ethyl-8-methyl-1-thia-4,8-diazaspiro[4.5]decane-3-one], the “Maximum tolerated oral dose” value (healthy elderly subjects) was 20 mg, the “Subjective measures of salivary gland dysfunction (8-item visual analog scale)” value ([1]; 15 mg and 20 mg doses) was “significant improvement compared with placebo for all 8 items” and the “Tear production (Schirmer test)” value ([1]; 15 mg dose) was “increased tear production significantly over placebo”. For the same compound, the Safety and tolerability ([1]; Compound A Form III capsules, single doses of 10 mg, 15 mg and 20 mg) was “safe, well tolerated”, the “Effectiveness with respect to xerostomia” value ([1]; Compound A Form III, 10, 15 and 20 mg) was “effective” and the “Tear production (Schirmer test), overall treatment effect” value ([1]; all doses, exploratory parameter) was “no overall treatment effect”. The “Maximum saliva flow versus placebo” value [1, 7] was “significantly greater than that observed with placebo treatment”, the “Saliva production versus placebo” value [1, 7] was “significantly greater than that observed with placebo treatment” and the “Relationship between dose and saliva production” value ([1]; in the first 6 hours and in the first 24 hours) was “linear relationship between dose and saliva production”. The “A and tau pathologies in the hippocampus and cortex” value (3×Tg-AD mice) was “reduced”, the Spatial memory (3×Tg-AD mice) was “improve” and the “Purity by HPLC (achiral) on long-term storage” value [2] was 100%. The “Purity by HPLC (chiral) on long-term storage” value [2] was 99.9-100%, the “Specification under long-term conditions” value ([2]; clinical batch (cGMP), monohydrate Form III, bulk, 0, 3, 6, 9, 12, 18 and 24 month time point) was “met specification” and the “Water content on long-term storage” value ([2]; listed as NGX267) was 7.2-8%. For the same compound, the Steady-state conditions [3] was “attained on the third day of dosing”.

For `CC[C@@H]1SC2(CCN(C)CC2)NC1=O` [Form I, (S)-2-ethyl-8-methyl-1-thia-4,8-diazaspiro[4.5]decane-3-one], the “Interconversion of monohydrate Forms I and III” value [4] was “does not convert to Form III”, the “Time to complete conversion to Form II on heating” value ([4]; 90° C., crystallized from ethyl acetate) was 4 h and the “Crystal form after storage at 95% relative humidity” value ([4]; room temperature, one week) was “still crystalline Form I”.

In the case of `CC[C@@H]1SC2(CCN(C)CC2)NC1=O` [Form II, (S)-2-ethyl-8-methyl-1-thia-4,8-diazaspiro[4.5]decane-3-one], the “Behaviour upon equilibration at elevated humidity” value [4] is reported as “conversion to the monohydrate Form III occurs”, the “Behaviour when stored at ambient room temperature and humidity” value [4] is reported as “begins to convert to the hydrate form” and the “Crystal form after heating at 70° C.” value ([4]; 10 h, then room temperature overnight) is reported as “unchanged”. It also gave a Maximum tolerated dose (man) of 35 mg.

For `CC[C@@H]1SC2(CCN(C)CC2)NC1=O` [Form III, (S)-2-ethyl-8-methyl-1-thia-4,8-diazaspiro[4.5]decane-3-one], the solubility at 2 days (Aqueous solubility) was 5300 µg/mL (≈ 24.7 mM), the Water adsorption ([5]; 8-90% relative humidity) was “no water was adsorbed” and the “Relative humidity at which Form III begins to dehydrate” value ([5]; desorption) was “below 7%”. For the same compound, the “Relative humidity at which virtually complete water loss is achieved” value ([5]; desorption) was 2%, the Hygroscopicity ([5]; dynamic moisture uptake) was “non-hygroscopic” and the Water desorption ([5]; relative humidity above 7%) was “No water desorption was detected”. The “Interconversion of monohydrate Forms I and III” value [4] was “does not convert to Form I”, the “Stability under various storage conditions” value [4] was “stable under various storage conditions for at least two years” and the “Purity by HPLC (achiral) on long-term storage” value [2] was 100%. For the same compound, the “Purity by HPLC (chiral) on long-term storage” value [2] was 99.9-100%, the “Water content on long-term storage” value [2] was 7.6-8% and the “Stability under long-term conditions” value ([2]; cGMP API) was “highly stable”.

For `CCCCCCOc1nsnc1C1=CCCN(C)C1` [Xanomeline], the “Safety margin with respect to cholinergic adverse events” value ([6]; all clinical studies) is listed as “unacceptable safety margin”, the “Behavioral disturbances in AD patients” value ([6]; in vivo) is listed as “improvements” and the Effect in schizophrenics ([6]; in vivo) is listed as “efficacy in schizophrenics”.
